The values that follow come from the supplement of paper PMC4723716.

In the assay the test system is Plasmodium falciparum NF54 stage V gametocytes. The experiment in a line: viability index relative to DMSO control (fraction); higher = less gametocyte killing. The following applies: 2.5 µM, incubation time: 72 h. The method, boiled down: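 P. falciparum NF54 stage V gametocytes in serum-free screening medium (0.75% gametocytemia, 1.25% hematocrit, 10 µl) were incubated with compound at 2.5 µM in 1,536-well plates for 72 hr at 37°C under low oxygen. Then 3 µl of 2.5 µM MitoTracker Red CMXRos plus 0.13% saponin was added for one to two hours. One field per well was imaged, 20–70 µm2 red particles were counted, and the viability index was the count divided by the plate mean of DMSO wells.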

[1] abbreviates: library set: Broad Institute DOS.

± gives the uncertainty stated by the source. In all, about 9,900 compounds were measured (“viability index relative to DMSO control”: median about 1, lowest 2% from about 0.85 on). The list shows a part of the results.

`C/C=C/c1ccc2c(c1)[C@@H]1[C@@H](CCN1C(=O)Cc1ccncc1)[C@@H](CO)N2C` displayed a viability index under setting [1] of 1.11 ± 0.031.
Same read-out and setting: under `Cc1noc(C)c1NC(=O)Nc1ccc2c(c1)C(=O)N(C)[C@@H]1CC[C@H](CC(=O)N[C@H]3CCN(Cc4ccccc4)C3)O[C@H]1CO2` stands 1.13 ± 0.1; under `Cc1ccccc1-c1ccc([C@H]2[C@H]3CNC[C@@H]2N3S(=O)(=O)c2ccccc2)cc1`, 1.07 ± 0.014; under `COc1cccc(NC(=O)N2CC(=O)N3[C@@H](CO)[C@@H](c4ccc(C#CCC5CCCC5)cc4)[C@@H]3C2)c1`, 1.01 ± 0.018.
For the compound `COc1ccc(S(=O)(=O)Nc2ccc3c(c2)CC(=O)N([C@H](C)CO)C[C@H](C)[C@@H](CN(C)Cc2ccc(C(=O)Nc4ccccc4N)cc2)O3)cc1`, the viability index under setting [1] worked out at 1 ± 0.027.
On the same count and under the same terms, under `O=C(C[C@@H]1C=C[C@@H](NC(=O)c2cnccn2)[C@H](CO)O1)NCc1ccccc1F` stands 1.04 ± 0.018; under `COc1ccc2c3c([C@@H](CO)N(Cc4ccccc4F)C[C@]33CCN(CC3)C(=O)C3CCOCC3)n(C)c2c1`, 1.01 ± 0.085; under `CC(C)[C@@H]1COCc2cnnn2CCC[C@H](C)C(=O)N1`, 1.09 ± 0.072.
On the same count and under the same terms, to `CCc1cnc(N2[C@H](C#N)[C@@H](c3ccc(C4=CCCCC4)cc3)[C@H]2CO)s1` belongs 1.23 ± 0.053; to `COCC(=O)N1[C@H](CO)[C@@H](c2ccccc2-c2ccccc2F)[C@@H]1C#N`, 1.1 ± 0.012.
Under setting [1], `O=C(Cc1ccccn1)N[C@@H]1CC[C@@H](CCNS(=O)(=O)c2cccc(F)c2)O[C@@H]1CO` came in with a viability index of 1.08 ± 0.016.
In turn, `C/C=C/c1ccc2n(c1=O)C[C@@H]1[C@@H](CO)[C@H](C(=O)N3CCc4ccccc4C3)[C@H]2N1Cc1cocn1.C/C=C\c1ccc2n(c1=O)C[C@@H]1[C@@H](CO)[C@H](C(=O)N3CCc4ccccc4C3)[C@H]2N1Cc1cocn1` registered a viability index under setting [1] of 1.048 ± 0.0066.
The same measure, in the same setting: to `C[C@H]1CN([C@@H](C)CO)C(=O)c2ccccc2-c2ccccc2CO[C@H]1CN(C)Cc1cccc2c1OCCCO2` belongs 0.825 ± 0.16; to `CN1C(=O)c2cc(NC(=O)C3CCOCC3)ccc2OC[C@H]2O[C@@H](CC(=O)Nc3ccc4c(c3)CCCC4)CC[C@@H]21`, 1.05 ± 0.019; to `COC(=O)C[C@@H]1CC[C@@H]2[C@@H](COc3ccc(NS(=O)(=O)c4ccc(C)cc4)cc3C(=O)N2C)O1`, 1.13 ± 0.066.
`CC(=O)N1CCCCN2[C@H](CO)[C@H](c3ccc(-c4ccccc4)cc3)[C@H]2C1`: the viability index under setting [1] was 1.01 ± 0.089.
Still for that read-out and setting: to `Cc1cccc(-c2ccc([C@H]3[C@@H]4CN(Cc5cccc(F)c5)C[C@H]3N4)cc2)c1` belongs 1.053 ± 0.0043; to `O=C(NC[C@@H]1N[C@@H](CO)[C@@H]1c1ccc(-c2ccccc2F)cc1)c1ccccn1`, 1.06 ± 0.067.
In the case of `CCCC(=O)Nc1ccc2c(c1)OC[C@H](C)N(CC1CCOCC1)C[C@@H](C)[C@@H](OC)CN(C)C2=O`, the viability index under setting [1] was 1.03 ± 0.03.
On the same count and under the same terms, to `CC(C)CC#Cc1ccc([C@H]2[C@@H](CO)N3C(=O)CN(C(=O)c4cccc(F)c4)C[C@H]23)cc1` belongs 0.982 ± 0.013; to `CCC(=O)N1[C@@H]2c3ccc(C4=CCCCC4)c(=O)n3C[C@@H]2[C@@H](CO)[C@@H]1C(=O)NCc1ccc(F)cc1`, 1.014 ± 0.0092.
The same measure, in the same setting: to `COc1ccc2c3c([nH]c2c1)[C@@H](CO)N(C[C@]31CCN(Cc2cncnc2)CC1)C(=O)CN(C)C` belongs 1.06 ± 0.074; to `COc1ccc(S(=O)(=O)Nc2ccc3c(c2)C(=O)N([C@@H](C)CO)C[C@H](C)[C@H](CN(C)C(=O)Nc2c(C)noc2C)OCCCC[C@@H](C)O3)cc1`, 1.09 ± 0.092.
The same measure, in the same setting: under `CCCN1C[C@@H](C)[C@H](OC)CN(C)C(=O)c2cc(NS(=O)(=O)c3ccccc3)ccc2OC[C@H]1C` stands 1.01 ± 0.025; under `CCNC(=O)C[C@H]1CC[C@H]2[C@@H](COC[C@H](O)CN2C(=O)c2ccccn2)O1`, 1.07 ± 0.052; under `CN(C)CC(=O)N1[C@@H]2c3ccc(-c4cccc(F)c4)c(=O)n3C[C@@H]2[C@@H](CO)[C@@H]1C(=O)NC1CCC1`, 1.02 ± 0.1.
For `CN1[C@@H]2Cn3c(ccc(-c4ccncc4)c3=O)[C@H]1[C@@H](C(=O)N1CCC(Cc3ccccc3)CC1)[C@@H]2CO`, the viability index under setting [1] came to 1.11 ± 0.041.
On the same count and under the same terms, under `N#C[C@@H]1[C@H](c2ccc(-c3cccc(F)c3)cc2)[C@@H](CO)N1c1nc(-c2ccccc2)cs1` stands 1.04 ± 0.045.
The same measure, in the same setting: under `CC(C)NC(=O)Nc1ccc2c(c1)C(=O)N([C@@H](C)CO)C[C@@H](C)[C@H](CN(C)C(=O)C1CCCCC1)OCCCC[C@H](C)O2` stands 1.07 ± 0.067; under `C[C@@H]1CN([C@H](C)CO)C(=O)CCCn2nncc2CO[C@H]1CN(C)Cc1cccc(C(F)(F)F)c1`, 1.02 ± 0.022.
Still for that read-out and setting: under `CO[C@@H](CN(C)C(=O)Nc1ccc(Cl)cc1)[C@@H](C)CN(Cc1ccccc1Cl)[C@H](C)CO` stands 0.98 ± 0.099; under `CN1C(=O)c2cc(NC(=O)c3cscn3)ccc2OC[C@H]2O[C@H](CC(=O)N3CCOCC3)CC[C@@H]21`, 1.08 ± 0.065.
`O=C(Cc1ccccc1)N1CC(=O)N2[C@H](CO)[C@H](c3ccc(C#CCc4ccccc4)cc3)[C@H]2C1` returned a viability index (library set: Broad Institute Blood Stage) of 0.699 ± 0.1.
`O=C(C[C@@H]1C=C[C@@H](NC(=O)C2CCC2)[C@@H](CO)O1)NC1CCCCC1`: under setting [1], the viability index amounted to 1.16 ± 0.096.
The same measure, in the same setting: to `Cc1ccc(CN2CC(=O)N3[C@H](CO)[C@@H](c4ccc(-c5ccccc5F)cc4)[C@H]3C2)cc1` belongs 1.05 ± 0.062.
On the same count and under the same terms, to `COc1ccc2c3c([nH]c2c1)[C@@H](CO)N(C)C[C@]31CN(C1)C(=O)C1CC1` belongs 1.05 ± 0.087.
The compound `CN1C[C@H]2[C@@H](c3ccccc31)[C@@H](CO)N2C(=O)c1cccnc1` showed a viability index under setting [1] of 0.995 ± 0.029.
Same read-out and setting: to `CO[C@H](CN(C)S(=O)(=O)c1cccc(Cl)c1)[C@@H](C)CN(C(=O)Nc1ccccc1F)[C@H](C)CO` belongs 1.173 ± 0.0087.
The same measure, in the same setting: under `N#C[C@@H]1[C@H](c2ccccc2)[C@H](CO)N1C(=O)c1ccccc1F` stands 1.075 ± 0.0014.
`Cc1ccc(S(=O)(=O)NCC[C@H]2CC[C@@H](NC(=O)c3cccnc3)[C@H](CO)O2)cc1` displayed a viability index under setting [1] of 0.984 ± 0.057.
On the same count and under the same terms, to `COc1ccc(NC(=O)N(C)C[C@H]2Oc3ccc(NC(=O)CCN4CCOCC4)cc3C(=O)N([C@@H](C)CO)C[C@@H]2C)cc1` belongs 1 ± 0.035.
On the same count and under the same terms, to `C[C@@H]1CN([C@H](C)CO)C(=O)CCCn2nncc2CO[C@H]1CN(C)C(=O)c1cc(-c2ccccc2)on1` belongs 0.996 ± 0.088; to `CO[C@@H]1CN(C)C(=O)c2ccc(NC(=O)c3cc(C)on3)cc2OC[C@H](C)NC[C@@H]1C`, 1.08 ± 0.028.
The same measure, in the same setting: under `C[C@@H]1CCCCO[C@H](CN(C)CC2CC2)[C@H](C)CN([C@H](C)CO)C(=O)c2cc(NC(=O)c3ccccc3)ccc2O1` stands 0.951 ± 0.027; under `CS(=O)(=O)N1[C@@H]2c3cccc(=O)n3C[C@H]1[C@H](CO)[C@H]2C(=O)NCc1ccc(F)cc1`, 1.07 ± 0.13.
